This is an account of results in the supplement of paper PMC10369915.

This is one part of the list. Rule as the data show it: active = 3.2 or more and inactive = the rest. The signal is at background level for most entries.
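Also: displayed peptides selected on beads carrying the immobilized SH2 domain, with library peptides lacking any tyrosine serving as negative controls.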

The first assay addresses SHP2 C-SH2 domain E139D. In words: enrichment score (SH2-bound / input frequency) (ratio); bacterial display of known human phosphotyrosine sites (pTyr-Var adds point mutants) read by sequencing; higher = stronger binding; tyrosines were phosphorylated by kinases first. Conditions: peptide library: pTyr-Var.
On to TRSYDYTEGGD [FGF7_Y58_M59T], for which the enrichment score was inactive: 0.486.

For the molecule AAVDEYLEFRR [FAM221A_Y17_YF], the enrichment score was inactive: 0.882.

With VDLSKYITTIA [FAS_Y232], the enrichment score was inactive: 1.11.

Consider FGSRLYKFAFK [FANCD2_Y458_L456R_YF], for which the enrichment score is inactive: 0.583.

As for AESPEYVHMYT [FAM111A_Y511], the enrichment score is inactive: 0.864.

As for KPYRVYCDMNT [FGB_Y269], the enrichment score is inactive: 0.785.

For REVPVYTYSEP [FAM120B_Y368_D370Y], the enrichment score was inactive: 0.789.

Regarding VRFVDYVLFRS [FAM189B_Y361_S358F], the enrichment score was inactive: 3.03.

Consider DEGVNHFMSKG [FBXO8_Y156_Y156H], for which the enrichment score was inactive: 0.803.

Consider EFISEHCGEII [EZH2_Y641_Y641H], for which the enrichment score is inactive: 1.08.

For NVVHEYSSELE [FGB_Y172_N170H], the enrichment score was inactive: 0.561.

As to LSSETYVKSYT [F5_Y2149_M2148T], the enrichment score was inactive: 0.757.

For the molecule KSFDMYSGDVM [FAM3D_Y122_A118S], the enrichment score was inactive: 0.651.

In the case of MFCASYDTKQE [F10_Y407_G406S], the enrichment score is inactive: 0.914.

Take ENFDDYMKDVG [FABP4_Y20_E23D]: the enrichment score was inactive: 0.846.

For MNPPPYSQFLS [FGF23_Y154], the enrichment score is inactive: 0.917.

As to VRFMADTDETF [F8_Y450_Y450D], the enrichment score is inactive: 0.858.

Turning to RIGRKYKRVRF [F8_Y442_K444R], the enrichment score is inactive: 0.307.

Regarding TYVKSYTIHYS [F5_Y2153_M2148T], the enrichment score was inactive: 0.778.

The next assay addresses SHP2 C-SH2 domain wild-type. Described as above. Conditions: peptide library: pTyr-Var.
Turning to TRSYDYTEGGD [FGF7_Y58_M59T], the enrichment score was inactive: 0.474.

Consider AAVDEYLEFRR [FAM221A_Y17_YF], for which the enrichment score is inactive: 0.752.

Regarding VDLSKYITTIA [FAS_Y232], the enrichment score is inactive: 1.02.

On to FGSRLYKFAFK [FANCD2_Y458_L456R_YF], for which the enrichment score was inactive: 0.496.

On to AESPEYVHMYT [FAM111A_Y511], for which the enrichment score is inactive: 0.644.

KPYRVYCDMNT [FGB_Y269]: the enrichment score is inactive: 1.11.

Turning to REVPVYTYSEP [FAM120B_Y368_D370Y], the enrichment score was inactive: 0.777.

With VRFVDYVLFRS [FAM189B_Y361_S358F], the enrichment score is inactive: 2.95.

Take DEGVNHFMSKG [FBXO8_Y156_Y156H]: the enrichment score is inactive: 0.601.

Consider EFISEHCGEII [EZH2_Y641_Y641H], for which the enrichment score was inactive: 1.02.

As for NVVHEYSSELE [FGB_Y172_N170H], the enrichment score was inactive: 0.789.

For the molecule LSSETYVKSYT [F5_Y2149_M2148T], the enrichment score is inactive: 0.582.

With KSFDMYSGDVM [FAM3D_Y122_A118S], the enrichment score was inactive: 0.623.

For MFCASYDTKQE [F10_Y407_G406S], the enrichment score was inactive: 0.983.

Regarding ENFDDYMKDVG [FABP4_Y20_E23D], the enrichment score was inactive: 0.786.

On to MNPPPYSQFLS [FGF23_Y154], for which the enrichment score is inactive: 0.596.

As for VRFMADTDETF [F8_Y450_Y450D], the enrichment score was inactive: 0.784.

RIGRKYKRVRF [F8_Y442_K444R]: the enrichment score was inactive: 0.219.

On to TYVKSYTIHYS [F5_Y2153_M2148T], for which the enrichment score is inactive: 0.941.

Another assay has as its target SHP2 N-SH2 domain L43F. The assay is described as above. Particulars: peptide library: pTyr-Var.
Take TRSYDYTEGGD [FGF7_Y58_M59T]: the enrichment score is inactive: 0.599.

For AAVDEYLEFRR [FAM221A_Y17_YF], the enrichment score is inactive: 1.21.

As to VDLSKYITTIA [FAS_Y232], the enrichment score is inactive: 1.29.

For FGSRLYKFAFK [FANCD2_Y458_L456R_YF], the enrichment score was inactive: 0.482.

As for AESPEYVHMYT [FAM111A_Y511], the enrichment score was inactive: 0.728.

Consider KPYRVYCDMNT [FGB_Y269], for which the enrichment score was inactive: 0.839.

In the case of REVPVYTYSEP [FAM120B_Y368_D370Y], the enrichment score is inactive: 0.979.

For the molecule VRFVDYVLFRS [FAM189B_Y361_S358F], the enrichment score is active: 3.3.

As to DEGVNHFMSKG [FBXO8_Y156_Y156H], the enrichment score was inactive: 0.667.

For EFISEHCGEII [EZH2_Y641_Y641H], the enrichment score is inactive: 1.25.

In the case of NVVHEYSSELE [FGB_Y172_N170H], the enrichment score was inactive: 0.64.

As to LSSETYVKSYT [F5_Y2149_M2148T], the enrichment score is inactive: 1.03.

With KSFDMYSGDVM [FAM3D_Y122_A118S], the enrichment score was inactive: 0.745.

Regarding MFCASYDTKQE [F10_Y407_G406S], the enrichment score was inactive: 0.874.

With ENFDDYMKDVG [FABP4_Y20_E23D], the enrichment score was inactive: 0.656.

Turning to MNPPPYSQFLS [FGF23_Y154], the enrichment score was inactive: 1.02.

Turning to VRFMADTDETF [F8_Y450_Y450D], the enrichment score was inactive: 0.839.

For the molecule RIGRKYKRVRF [F8_Y442_K444R], the enrichment score is inactive: 0.322.

For the molecule TYVKSYTIHYS [F5_Y2153_M2148T], the enrichment score was inactive: 1.33.

For another assay, the target named is SHP2 N-SH2 domain T42A. The assay is described as above. Particulars: peptide library: pTyr-Var.
Take TRSYDYTEGGD [FGF7_Y58_M59T]: the enrichment score is inactive: 0.51.

Regarding AAVDEYLEFRR [FAM221A_Y17_YF], the enrichment score is inactive: 0.725.

VDLSKYITTIA [FAS_Y232]: the enrichment score was inactive: 1.19.

Take FGSRLYKFAFK [FANCD2_Y458_L456R_YF]: the enrichment score is inactive: 0.501.

In the case of AESPEYVHMYT [FAM111A_Y511], the enrichment score is inactive: 0.638.

As for KPYRVYCDMNT [FGB_Y269], the enrichment score is inactive: 0.793.

Consider REVPVYTYSEP [FAM120B_Y368_D370Y], for which the enrichment score is inactive: 0.728.

On to VRFVDYVLFRS [FAM189B_Y361_S358F], for which the enrichment score is inactive: 2.56.

Turning to DEGVNHFMSKG [FBXO8_Y156_Y156H], the enrichment score is inactive: 0.892.

As to EFISEHCGEII [EZH2_Y641_Y641H], the enrichment score is inactive: 0.827.

For the molecule NVVHEYSSELE [FGB_Y172_N170H], the enrichment score was inactive: 0.808.

Consider LSSETYVKSYT [F5_Y2149_M2148T], for which the enrichment score was inactive: 0.493.

KSFDMYSGDVM [FAM3D_Y122_A118S]: the enrichment score is inactive: 0.654.

Take MFCASYDTKQE [F10_Y407_G406S]: the enrichment score was inactive: 0.923.

With ENFDDYMKDVG [FABP4_Y20_E23D], the enrichment score is inactive: 0.699.

For the molecule MNPPPYSQFLS [FGF23_Y154], the enrichment score is inactive: 0.821.

In the case of VRFMADTDETF [F8_Y450_Y450D], the enrichment score was inactive: 0.795.

Turning to RIGRKYKRVRF [F8_Y442_K444R], the enrichment score is inactive: 0.286.

As to TYVKSYTIHYS [F5_Y2153_M2148T], the enrichment score is inactive: 0.687.

The target of a further assay is SHP2 N-SH2 domain T52S. The assay is described as above. Conditions: peptide library: pTyr-Var.
Turning to TRSYDYTEGGD [FGF7_Y58_M59T], the enrichment score was inactive: 0.624.

With AAVDEYLEFRR [FAM221A_Y17_YF], the enrichment score is inactive: 0.937.

As for VDLSKYITTIA [FAS_Y232], the enrichment score is inactive: 1.25.

Take FGSRLYKFAFK [FANCD2_Y458_L456R_YF]: the enrichment score was inactive: 0.506.

In the case of AESPEYVHMYT [FAM111A_Y511], the enrichment score was inactive: 0.692.

On to KPYRVYCDMNT [FGB_Y269], for which the enrichment score is inactive: 0.842.

Consider REVPVYTYSEP [FAM120B_Y368_D370Y], for which the enrichment score is inactive: 0.632.

With VRFVDYVLFRS [FAM189B_Y361_S358F], the enrichment score was inactive: 2.9.

As to DEGVNHFMSKG [FBXO8_Y156_Y156H], the enrichment score is inactive: 0.614.

Consider EFISEHCGEII [EZH2_Y641_Y641H], for which the enrichment score is inactive: 0.947.

NVVHEYSSELE [FGB_Y172_N170H]: the enrichment score is inactive: 0.619.

On to LSSETYVKSYT [F5_Y2149_M2148T], for which the enrichment score was inactive: 0.697.

Take KSFDMYSGDVM [FAM3D_Y122_A118S]: the enrichment score was inactive: 0.637.

As for MFCASYDTKQE [F10_Y407_G406S], the enrichment score is inactive: 0.801.

In the case of ENFDDYMKDVG [FABP4_Y20_E23D], the enrichment score is inactive: 0.64.

On to MNPPPYSQFLS [FGF23_Y154], for which the enrichment score was inactive: 0.917.

As for VRFMADTDETF [F8_Y450_Y450D], the enrichment score was inactive: 0.85.

Take RIGRKYKRVRF [F8_Y442_K444R]: the enrichment score is inactive: 0.131.

For TYVKSYTIHYS [F5_Y2153_M2148T], the enrichment score was inactive: 1.53.

In another assay the target is SHP2 N-SH2 domain wild-type. The description is as above. Conditions: peptide library: pTyr-Var.
For the molecule TRSYDYTEGGD [FGF7_Y58_M59T], the enrichment score was inactive: 0.609.

As for AAVDEYLEFRR [FAM221A_Y17_YF], the enrichment score was inactive: 0.689.

Consider VDLSKYITTIA [FAS_Y232], for which the enrichment score is inactive: 1.09.

For FGSRLYKFAFK [FANCD2_Y458_L456R_YF], the enrichment score was inactive: 0.637.

Regarding AESPEYVHMYT [FAM111A_Y511], the enrichment score was inactive: 0.696.

On to KPYRVYCDMNT [FGB_Y269], for which the enrichment score is inactive: 1.04.

For REVPVYTYSEP [FAM120B_Y368_D370Y], the enrichment score was inactive: 0.888.

In the case of VRFVDYVLFRS [FAM189B_Y361_S358F], the enrichment score was inactive: 3.06.

With DEGVNHFMSKG [FBXO8_Y156_Y156H], the enrichment score is inactive: 0.675.

For the molecule EFISEHCGEII [EZH2_Y641_Y641H], the enrichment score is inactive: 1.21.

Take NVVHEYSSELE [FGB_Y172_N170H]: the enrichment score is inactive: 0.844.

For the molecule LSSETYVKSYT [F5_Y2149_M2148T], the enrichment score was inactive: 0.659.

For KSFDMYSGDVM [FAM3D_Y122_A118S], the enrichment score is inactive: 0.541.

Take MFCASYDTKQE [F10_Y407_G406S]: the enrichment score is inactive: 0.87.

Take ENFDDYMKDVG [FABP4_Y20_E23D]: the enrichment score is inactive: 0.87.

As to MNPPPYSQFLS [FGF23_Y154], the enrichment score was inactive: 0.902.

On to VRFMADTDETF [F8_Y450_Y450D], for which the enrichment score was inactive: 0.921.

In the case of RIGRKYKRVRF [F8_Y442_K444R], the enrichment score is inactive: 0.206.

TYVKSYTIHYS [F5_Y2153_M2148T]: the enrichment score is inactive: 0.813.
